Where a chain is given by its changes, count along the chain named. Names may count otherwise. Results are given in words; binding and its absence hold for the method and conditions named. Binding seen in cells or lysates may run through a third protein. Some binding calls cover weakened binding; strength is not graded here. For part of these data: Where a sequence is shown, tags or fusion partners need not be part of it. One block for each binder: values may come before it.
Experiments:
Frey1-3xFLAG = biological target: T1, Frey1-3xFLAG (UniProt Q8CF31); test: co-IP; Frey1-3xFLAG co-expressed with SPPL2c-myc variants in HEK293T cells (wild type or calnexin-deficient clone #9) and precipitated from DDM lysates with anti-FLAG beads; western blot
T1 sequence: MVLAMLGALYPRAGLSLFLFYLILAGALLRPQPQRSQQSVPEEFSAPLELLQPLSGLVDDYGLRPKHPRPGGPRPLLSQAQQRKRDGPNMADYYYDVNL

[1] = biological target: T2, calmegin-3xFLAG (murine) (mouse) (UniProt P52194); test: co-IP; 3xFLAG-tagged calnexin or calmegin co-expressed with SPPL2c-myc in HEK293T cells, lysis in 0.5% DDM, chaperone precipitated with anti-FLAG beads; western blot
T2 sequence: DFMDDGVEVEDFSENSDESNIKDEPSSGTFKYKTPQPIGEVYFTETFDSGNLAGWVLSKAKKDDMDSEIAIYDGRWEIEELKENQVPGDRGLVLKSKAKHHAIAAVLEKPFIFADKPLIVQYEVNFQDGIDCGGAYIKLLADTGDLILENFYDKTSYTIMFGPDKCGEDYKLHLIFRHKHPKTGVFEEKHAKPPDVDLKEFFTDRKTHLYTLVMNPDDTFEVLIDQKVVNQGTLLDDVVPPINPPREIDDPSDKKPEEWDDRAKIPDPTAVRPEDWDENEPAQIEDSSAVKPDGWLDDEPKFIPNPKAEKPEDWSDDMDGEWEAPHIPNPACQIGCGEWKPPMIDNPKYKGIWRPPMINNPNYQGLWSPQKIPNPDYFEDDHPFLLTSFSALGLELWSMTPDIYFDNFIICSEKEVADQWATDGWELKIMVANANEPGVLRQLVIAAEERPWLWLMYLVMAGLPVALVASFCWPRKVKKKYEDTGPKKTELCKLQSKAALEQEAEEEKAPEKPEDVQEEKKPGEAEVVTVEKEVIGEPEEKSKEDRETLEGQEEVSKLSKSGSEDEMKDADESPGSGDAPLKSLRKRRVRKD

[2] = biological target: T3, calnexin-3xFLAG (murine) (mouse) (UniProt P35564); test: as above
T3 sequence: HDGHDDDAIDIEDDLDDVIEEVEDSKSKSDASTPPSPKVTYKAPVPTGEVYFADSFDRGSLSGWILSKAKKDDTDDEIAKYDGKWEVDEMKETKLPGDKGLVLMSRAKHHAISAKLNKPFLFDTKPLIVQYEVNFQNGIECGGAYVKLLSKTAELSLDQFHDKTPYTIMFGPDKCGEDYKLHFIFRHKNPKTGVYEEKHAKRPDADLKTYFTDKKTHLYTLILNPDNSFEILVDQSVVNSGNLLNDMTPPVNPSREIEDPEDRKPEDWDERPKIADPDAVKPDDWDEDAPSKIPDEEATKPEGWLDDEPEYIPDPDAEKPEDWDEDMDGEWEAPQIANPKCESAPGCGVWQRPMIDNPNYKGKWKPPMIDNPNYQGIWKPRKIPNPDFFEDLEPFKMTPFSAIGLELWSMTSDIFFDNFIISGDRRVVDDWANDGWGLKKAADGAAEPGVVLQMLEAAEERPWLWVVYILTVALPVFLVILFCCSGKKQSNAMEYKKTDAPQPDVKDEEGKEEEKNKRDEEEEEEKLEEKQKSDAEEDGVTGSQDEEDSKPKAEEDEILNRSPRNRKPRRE

[3] = biological target: T4, SPPL2c (Signal peptide peptidase-like 2c), endogenous in murine testis (mouse (endogenous in testis)) (UniProt A2A6C4); test: co-IP; endogenous SPPL2c precipitated with anti-SPPL2c (C-terminus) sepharose beads from mouse testis lysates (0.5% DDM; for Frey1 also CHAPSO, DM and digitonin tried; wild type, Sppl2c-/-, Frey1-/- and double-deficient mice), overnight at 4 °C; western blot
T4 sequence (chain, N-glycosylated at N106): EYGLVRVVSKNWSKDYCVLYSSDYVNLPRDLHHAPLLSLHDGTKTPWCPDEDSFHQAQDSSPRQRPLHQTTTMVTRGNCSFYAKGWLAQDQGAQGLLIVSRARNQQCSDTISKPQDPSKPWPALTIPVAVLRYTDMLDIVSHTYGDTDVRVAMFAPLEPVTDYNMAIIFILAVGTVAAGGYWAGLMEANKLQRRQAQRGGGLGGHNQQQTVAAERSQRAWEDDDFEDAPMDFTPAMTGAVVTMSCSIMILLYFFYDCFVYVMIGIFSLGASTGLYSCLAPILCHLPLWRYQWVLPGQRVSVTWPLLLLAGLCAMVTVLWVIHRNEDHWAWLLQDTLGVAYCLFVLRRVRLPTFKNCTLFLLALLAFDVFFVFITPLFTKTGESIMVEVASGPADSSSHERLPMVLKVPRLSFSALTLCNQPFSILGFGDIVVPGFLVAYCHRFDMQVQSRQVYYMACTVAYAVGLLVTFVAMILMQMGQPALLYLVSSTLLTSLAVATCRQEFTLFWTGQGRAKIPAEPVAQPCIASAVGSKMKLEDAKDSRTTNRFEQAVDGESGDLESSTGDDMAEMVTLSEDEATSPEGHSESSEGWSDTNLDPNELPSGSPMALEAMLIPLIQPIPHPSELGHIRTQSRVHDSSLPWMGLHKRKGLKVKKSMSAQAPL

- binding (Frey1-3xFLAG): binds
- binding [1]: binds
- binding [2]: binds
B1: SPPL2c-myc (murine SPPL2c isoform A, wild type) (enzyme, UniProt A2A6C4 29-690)
chain: T4 sequence (chain, N-glycosylated at N106)
modifications: N-glycosylated at N106

- binding (Frey1-3xFLAG): binds
B2: SPPL2c N106A-myc (murine isoform A, glycosylation-deficient) (enzyme, UniProt A2A6C4 29-690)
chain: T4 sequence (chain, N-glycosylated at N106) with N78A

- binding [3]: binds
B3: calnexin, endogenous in murine testis (protein, UniProt P35564 21-591)
chain: T3 sequence

- binding [3]: binds
B4: Frey1, endogenous in murine testis (protein, UniProt Q8CF31 1-99)
chain: T1 sequence

From article PMC11513070
